Results: patent US20260083855A1 (Hoffmann-La Roche, published 2026)

B1: PD1 376 IgG-huIL2v L19V (P1AE0491) (other)
light: DIVMTQSPDSLAVSLGERATINCKASESVDTSDNSFIHWYQQKPGQSPKLLIYRSSTLESGVPDRFSGSGSGTDFTLTISSLQAEDVAVYYCQQNYDVPWTFGQGTKVEIKRTVAAPSVFIFPPSDEQLKSGTASVVCLLNNFYPREAKVQWKVDNALQSGNSQESVTEQDSKDSTYSLSSTLTLSKADYEKHKVYACEVTHQGLSSPVTKSFNRGEC
heavy 1: EVQLLESGGGLVQPGGSLRLSCAASGFSFSSYTMSWVRQAPGKGLEWVATISGGGRDIYYPDSVKGRFTISRDNSKNTLYLQMNSLRAEDTAVYYCVLLTGRVYFALDSWGQGTLVTVSSASTKGPSVFPLAPSSKSTSGGTAALGCLVKDYFPEPVTVSWNSGALTSGVHTFPAVLQSSGLYSLSSVVTVPSSSLGTQTYICNVNHKPSNTKVDKKVEPKSCDKTHTCPPCPAPEAAGGPSVFLFPPKPKDTLMISRTPEVTCVVVDVSHEDPEVKFNWYVDGVEVHNAKTKPREEQYNSTYRVVSVLTVLHQDWLNGKEYKCKVSNKALGAPIEKTISKAKGQPREPQVCTLPPSRDELTKNQVSLSCAVKGFYPSDIAVEWESNGQPENNYKTTPPVLDSDGSFFLVSKLTVDKSRWQQGNVFSCSVMHEALHNHYTQKSLSLSPGK
heavy 2: EVQLLESGGGLVQPGGSLRLSCAASGFSFSSYTMSWVRQAPGKGLEWVATISGGGRDIYYPDSVKGRFTISRDNSKNTLYLQMNSLRAEDTAVYYCVLLTGRVYFALDSWGQGTLVTVSSASTKGPSVFPLAPSSKSTSGGTAALGCLVKDYFPEPVTVSWNSGALTSGVHTFPAVLQSSGLYSLSSVVTVPSSSLGTQTYICNVNHKPSNTKVDKKV[human IgG1 Fc with changes not written out]GGGGSGGGGSGGGGSAPASSSTKKTQLQLEHLLVDLQMILNGINNYKNPKLTRMLTAKFAMPKKATELKHLQCLEEELKPLEEVLNGAQSKNFHLRPRDLISNINVIVLELKGSETTFMCEYADETATIVEFLNRWITFAQSIISTLT
notes: Immunoconjugate: anti-human PD-1 (376) IgG1 PG LALA knob/hole, IL2v variant on the knob heavy chain; also called PD1-IL2v L19V
B2: PD1 376 IgG-huIL2v L80A (P1AE0494) (other)
light: B1 light
heavy 1: B1 heavy 1
heavy 2: EVQLLESGGGLVQPGGSLRLSCAASGFSFSSYTMSWVRQAPGKGLEWVATISGGGRDIYYPDSVKGRFTISRDNSKNTLYLQMNSLRAEDTAVYYCVLLTGRVYFALDSWGQGTLVTVSSASTKGPSVFPLAPSSKSTSGGTAALGCLVKDYFPEPVTVSWNSGALTSGVHTFPAVLQSSGLYSLSSVVTVPSSSLGTQTYICNVNHKPSNTKVDKKV[human IgG1 Fc with changes not written out]GGGGSGGGGSGGGGSAPASSSTKKTQLQLEHLLLDLQMILNGINNYKNPKLTRMLTAKFAMPKKATELKHLQCLEEELKPLEEVLNGAQSKNFHARPRDLISNINVIVLELKGSETTFMCEYADETATIVEFLNRWITFAQSIISTLT
notes: Immunoconjugate: anti-human PD-1 (376) IgG1 PG LALA knob/hole, IL2v variant on the knob heavy chain; also called PD1-IL2v L80A
B3: PD1 376 IgG-huIL2v N88Q (P1AE0496) (other)
light: B1 light
heavy 1: B1 heavy 1
heavy 2: EVQLLESGGGLVQPGGSLRLSCAASGFSFSSYTMSWVRQAPGKGLEWVATISGGGRDIYYPDSVKGRFTISRDNSKNTLYLQMNSLRAEDTAVYYCVLLTGRVYFALDSWGQGTLVTVSSASTKGPSVFPLAPSSKSTSGGTAALGCLVKDYFPEPVTVSWNSGALTSGVHTFPAVLQSSGLYSLSSVVTVPSSSLGTQTYICNVNHKPSNTKVDKKV[human IgG1 Fc with changes not written out]GGGGSGGGGSGGGGSAPASSSTKKTQLQLEHLLLDLQMILNGINNYKNPKLTRMLTAKFAMPKKATELKHLQCLEEELKPLEEVLNGAQSKNFHLRPRDLISQINVIVLELKGSETTFMCEYADETATIVEFLNRWITFAQSIISTLT
notes: Immunoconjugate: anti-human PD-1 (376) IgG1 PG LALA knob/hole, IL2v variant on the knob heavy chain; also called PD1-IL2v N88Q; P1AE0496-004
B4: PD1-IL2v_N88D (P1AA6761 = P1AD5401) (other)
light: B1 light
heavy 1: B1 heavy 1
heavy 2: EVQLLESGGGLVQPGGSLRLSCAASGFSFSSYTMSWVRQAPGKGLEWVATISGGGRDIYYPDSVKGRFTISRDNSKNTLYLQMNSLRAEDTAVYYCVLLTGRVYFALDSWGQGTLVTVSSASTKGPSVFPLAPSSKSTSGGTAALGCLVKDYFPEPVTVSWNSGALTSGVHTFPAVLQSSGLYSLSSVVTVPSSSLGTQTYICNVNHKPSNTKVDKKV[human IgG1 Fc with changes not written out]GGGGSGGGGSGGGGSAPASSSTKKTQLQLEHLLLDLQMILNGINNYKNPKLTRMLTAKFAMPKKATELKHLQCLEEELKPLEEVLNGAQSKNFHLRPRDLISDINVIVLELKGSETTFMCEYADETATIVEFLNRWITFAQSIISTLT
B5: NKG2D-IL2v Q126T alias NKG2D 80 IgG-huIL2v Q126T (P1AF2141) (other)
light: DIQMTQSPSSLSASVGDRVTITCRASQDISGALNWYQQKPGKAPNLLIYAASSLQSGVPSRFSGSGSGTDYTLTISSLQPEDFATYYCQQANSFPLTFGGGTKVEIKRTVAAPSVFIFPPSDEQLKSGTASVVCLLNNFYPREAKVQWKVDNALQSGNSQESVTEQDSKDSTYSLSSTLTLSKADYEKHKVYACEVTHQGLSSPVTKSFNRGEC
heavy 1: QEQLVQSGAEVKKPGESLKISCKGSGFDFNTFWMTWVRQMPGKGLEWMGSIHGGSGSRDYSPSFQGQVTISADIDQSTAYLQWSSLKASDTAMYYCARPGYRSWSKTFDLWGQGTTVTVSSASTKGPSVFPLAPSSKSTSGGTAALGCLVKDYFPEPVTVSWNSGALTSGVHTFPAVLQSSGLYSLSSVVTVPSSSLGTQTYICNVNHKPSNTKVDKKVEPKSCDKTHTCPPCPAPEAAGGPSVFLFPPKPKDTLMISRTPEVTCVVVDVSHEDPEVKFNWYVDGVEVHNAKTKPREEQYNSTYRVVSVLTVLHQDWLNGKEYKCKVSNKALGAPIEKTISKAKGQPREPQVCTLPPSRDELTKNQVSLSCAVKGFYPSDIAVEWESNGQPENNYKTTPPVLDSDGSFFLVSKLTVDKSRWQQGNVFSCSVMHEALHNHYTQKSLSLSPGK
heavy 2: QEQLVQSGAEVKKPGESLKISCKGSGFDFNTFWMTWVRQMPGKGLEWMGSIHGGSGSRDYSPSFQGQVTISADIDQSTAYLQWSSLKASDTAMYYCARPGYRSWSKTFDLWGQGTTVTVSSASTKGPSVFPLAPSSKSTSGGTAALGCLVKDYFPEPVTVSWNSGALTSGVHTFPAVLQSSGLYSLSSVVTVPSSSLGTQTYICNVNHKPSNTKVDKKV[human IgG1 Fc with changes not written out]GGGGSGGGGSGGGGSAPASSSTKKTQLQLEHLLLDLQMILNGINNYKNPKLTRMLTAKFAMPKKATELKHLQCLEEELKPLEEVLNGAQSKNFHLRPRDLISNINVIVLELKGSETTFMCEYADETATIVEFLNRWITFATSIISTLT

How the values were obtained:
[1] = molecular target: T1, hu IL2R beta-gamma-Fc (P1AD7029-002) (human, UniProt P14784 27-240; P31785 23-262); test: SPR, purified, captured via anti-human Fc, IL2Rbg-Fc analyte, 1:1 Langmuir
T1 construct: Analyte in all SPR runs; also called human IL2R beta-gamma Fc; recombinant human IL2Rbeta-gamma-Fc heterodimer; not shown: Fc part and any linker of the heterodimer
T1 sequence (looked up) 1: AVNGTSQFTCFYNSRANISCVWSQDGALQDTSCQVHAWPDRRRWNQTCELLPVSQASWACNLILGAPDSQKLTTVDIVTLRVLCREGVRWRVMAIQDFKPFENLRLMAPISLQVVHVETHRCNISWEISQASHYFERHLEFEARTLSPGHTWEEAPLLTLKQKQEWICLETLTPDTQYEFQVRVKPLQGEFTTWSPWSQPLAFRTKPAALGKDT
T1 sequence (looked up) 2: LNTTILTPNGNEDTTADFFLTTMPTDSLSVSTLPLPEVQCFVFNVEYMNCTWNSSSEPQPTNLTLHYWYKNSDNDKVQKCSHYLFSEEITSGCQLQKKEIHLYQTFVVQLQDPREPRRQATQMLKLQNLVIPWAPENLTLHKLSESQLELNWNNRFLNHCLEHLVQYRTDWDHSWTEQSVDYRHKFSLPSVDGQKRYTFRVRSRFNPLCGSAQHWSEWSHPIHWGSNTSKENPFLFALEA
Source text: Bulk refractive index differences were corrected for by subtracting the response obtained on the reference flow cell 1.

[2] = molecular target: T2, IL-2R on human cells (activated CD4 T cells, PBMC subsets, NK92) (human, UniProt P14784 27-551; P31785 23-369); test: cell-based or functional assay; set-up: AUC of STAT5-P on PD1+ T cells / AUC of STAT5-P on PD1-blocked T cells: unit not given beside the values
T2 sequence (looked up) 1: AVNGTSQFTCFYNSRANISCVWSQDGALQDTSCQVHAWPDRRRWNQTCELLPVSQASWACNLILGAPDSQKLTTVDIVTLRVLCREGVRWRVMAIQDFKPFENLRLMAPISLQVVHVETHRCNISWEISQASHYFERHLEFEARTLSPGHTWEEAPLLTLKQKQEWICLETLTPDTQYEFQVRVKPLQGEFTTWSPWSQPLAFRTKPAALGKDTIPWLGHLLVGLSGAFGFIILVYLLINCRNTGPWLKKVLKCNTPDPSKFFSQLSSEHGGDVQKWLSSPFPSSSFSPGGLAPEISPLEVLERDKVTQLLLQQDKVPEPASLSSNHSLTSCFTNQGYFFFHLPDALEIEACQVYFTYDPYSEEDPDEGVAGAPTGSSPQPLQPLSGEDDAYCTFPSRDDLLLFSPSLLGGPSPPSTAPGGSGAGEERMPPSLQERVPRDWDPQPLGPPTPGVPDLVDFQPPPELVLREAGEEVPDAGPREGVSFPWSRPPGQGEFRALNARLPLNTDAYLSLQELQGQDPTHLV
T2 sequence (looked up) 2: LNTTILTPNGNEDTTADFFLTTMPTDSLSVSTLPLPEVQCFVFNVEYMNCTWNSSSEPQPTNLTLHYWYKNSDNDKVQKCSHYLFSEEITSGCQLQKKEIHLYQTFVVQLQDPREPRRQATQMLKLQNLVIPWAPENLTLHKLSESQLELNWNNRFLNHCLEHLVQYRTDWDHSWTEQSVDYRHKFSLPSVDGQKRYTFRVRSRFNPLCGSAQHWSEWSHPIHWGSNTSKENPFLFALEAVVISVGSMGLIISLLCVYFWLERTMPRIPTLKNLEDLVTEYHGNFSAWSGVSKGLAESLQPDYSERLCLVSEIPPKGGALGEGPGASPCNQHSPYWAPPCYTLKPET

[3] = molecular target: human PD-1 on activated CD4 T cells (human, UniProt Q15116 25-288); test: cell-based or functional assay; set-up: AUC of STAT5-P on PD1+ T cells / AUC of STAT5-P on PD1-blocked T cells: unit not given beside the values
Chain of UniProt Q15116 (Q15116 25-288 limits assumed): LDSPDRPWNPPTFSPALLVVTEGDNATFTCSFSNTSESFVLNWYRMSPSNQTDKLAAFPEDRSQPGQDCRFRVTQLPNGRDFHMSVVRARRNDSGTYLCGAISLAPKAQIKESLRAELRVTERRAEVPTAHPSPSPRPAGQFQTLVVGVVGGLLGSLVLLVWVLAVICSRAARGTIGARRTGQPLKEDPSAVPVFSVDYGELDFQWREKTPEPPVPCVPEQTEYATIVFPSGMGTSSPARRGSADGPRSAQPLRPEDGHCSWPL

[4] = molecular target: T2, IL-2R on human cells (activated CD4 T …); test: cell-based or functional assay

| Binder | Kd [1] [nM] | koff [1] [s⁻¹] | kon [1] [M⁻¹ s⁻¹] | AUC of STAT5-P on PD1+ T cells [2] | AUC of STAT5-P on PD1-blocked T cells [2] | Potency reduction vs PD1-IL2v [2] [fold] | Cis-delivery: fold increase in EC50, EC50 [with PD1bl]/EC50 [PD1+] [3] [fold] | Potency reduction versus PD1-IL2v (MFI) [4] [fold] | Potency reduction versus PD1-IL2v (frequency) [4] [fold] |
| --- | --- | --- | --- | --- | --- | --- | --- | --- | --- |
| B1 | 0.18 | 3.57e-05 | 196000 | 201 | 92.7 | 1.45 | 36 | – | – |
| B2 | 0.09 | 1.96e-05 | 224000 | 198 | 94.9 | 1.58 | 29.1 | – | – |
| B3 | 70 | 0.00585 | 81800 | 47.1 | 7 | 8.03 | 69100 | – | – |
| B4 | – | – | – | 67.2 | 9.5 | 8.57 | 47100 | – | – |
| B5 | – | – | – | – | – | – | – | 62.4 | 134 |
